In PubChem BioAssay AID302 (DTP/NCI, 2004):
Inconclusive results and toxic doses are left out. For part of its entries the source gives two or more results. This is not the full list of results. The source may hold further records. The records of an entry are repeated measurements in other runs, samples, wells, individuals or studies.

Test system: BALB/c mice, Madison 109 lung carcinoma i.m., survival
Experiment: NCI In Vivo Anticancer Drug Screen. Data for tumor model Madison 109 Lung Carcinoma (intramuscular) in BALB/CM mice
Details: endpoint: median survival time; dose: 400.0 mg/kg/injection; schedule: Q01DX009 (ip); vehicle: saline; higher = longer survival
Method: The antitumor activity of compounds was measured in mice bearing transplantable tumors. Survival or tumor size were measured and the results are expressed as the measurement made in the treated group (T) divided by the measurement made in the vehicle treated control group (C). The tumor model used in this assay is Madison 109 Lung Carcinoma (intramuscular) in BALB/CM mice

## CN(C)C=O
  T/C: 104 % of control, 111 % of control, 160 % of control
